From PubChem BioAssay AID1645882 (National Center for Advancing Translational Sciences (NCATS), 2021)
Out of some 16,000 compounds screened, about 120 (0.75%) were called active. Not shown: some 4% with an inconclusive outcome. The call rests on the fitted dose curve; in most records, active means well fitted inhibition curve with a large enough effect; inconclusive means small, poorly fitted or top-dose-only effect; inactive means no such curve, though single readings can be large or run the other way. Some of the results follow.

target: Rap guanine nucleotide exchange factor 3 (Homo sapiens) (UniProt O95398); assay: Validation qHTS for antagonist of cAMP-regulated guanine nucleotide exchange factor 3 (EPAC1); conditions: EPAC1 Rap1B-BODIPY-GDP exchange, fluorescence; series mostly up to 150 µM; activity change, negative = inhibition: at the top concentration;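 further: plate controls were DMSO for no effect and ATA control for full effect; nearly all actives have a fitted effect of over 75% in size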
Summary of the method: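 Nucleotide exchange followed as fluorescence loss when BODIPY-GDP leaves Rap1B (480 nm excitation, 540 nm emission), read at 5 min intervals over 30 min. Reaction: 100 nM EPAC1, 250 nM RAP1B-BODIPY-GDP, 50 uM GDP; ATA and DMSO define normalization.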

UniProt O95398, sequence (O95398 whole entry, looked up): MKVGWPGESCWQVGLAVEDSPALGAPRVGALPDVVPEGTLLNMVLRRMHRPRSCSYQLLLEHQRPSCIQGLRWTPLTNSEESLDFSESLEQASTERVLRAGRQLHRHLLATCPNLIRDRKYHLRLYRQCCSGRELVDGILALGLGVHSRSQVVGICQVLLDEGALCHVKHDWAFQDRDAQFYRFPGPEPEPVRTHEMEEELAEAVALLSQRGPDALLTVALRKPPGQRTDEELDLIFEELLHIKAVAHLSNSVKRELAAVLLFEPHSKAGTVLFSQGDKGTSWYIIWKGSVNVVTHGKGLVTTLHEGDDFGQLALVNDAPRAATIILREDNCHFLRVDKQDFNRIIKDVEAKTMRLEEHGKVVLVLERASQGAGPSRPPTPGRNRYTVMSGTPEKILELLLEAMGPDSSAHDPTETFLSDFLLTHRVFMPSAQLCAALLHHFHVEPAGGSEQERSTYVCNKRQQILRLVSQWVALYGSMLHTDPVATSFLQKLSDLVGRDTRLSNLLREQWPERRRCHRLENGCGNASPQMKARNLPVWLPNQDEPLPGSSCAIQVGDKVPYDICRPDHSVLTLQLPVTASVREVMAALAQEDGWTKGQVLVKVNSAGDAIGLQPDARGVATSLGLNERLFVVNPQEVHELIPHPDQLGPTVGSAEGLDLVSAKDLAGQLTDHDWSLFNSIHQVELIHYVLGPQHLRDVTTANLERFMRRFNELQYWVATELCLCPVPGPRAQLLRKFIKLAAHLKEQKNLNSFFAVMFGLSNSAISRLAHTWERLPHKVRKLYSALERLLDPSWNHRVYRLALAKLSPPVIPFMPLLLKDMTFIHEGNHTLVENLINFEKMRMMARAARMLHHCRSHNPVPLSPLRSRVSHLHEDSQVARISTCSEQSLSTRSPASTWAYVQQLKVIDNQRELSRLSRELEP

Activity change, negative = inhibition, inactive:
Cc1cc(-c2ccnc(-n3ncc(C(=O)N(C)CC(O)c4ccccc4)c3C)n2)c(C)s1 (stereo not drawn) 14%
CC(N)=O 7.69% [at 75.8 µM]
CN1CC[C@H](c2c(O)cc(O)c3c(=O)cc(-c4ccccc4Cl)oc23)[C@H](O)C1 29.5%
CCCCCCCCCCCCCCCCCCOC[C@H](COP(=O)([O-])OCC[N+](C)(C)C)OC(C)=O -3.64% [at 15.3 µM]
O=C(C[N+]12CCCc3cccc(c31)CCC2)c1ccccc1 25.4%
O=C([C@@H]1C[C@@H](Sc2nc3ccccc3[nH]2)CN1Cc1ccc(C(F)(F)F)cc1)N1CCN(c2ccccc2F)CC1 7.98%
CCCCCCCCCC[n+]1ccc(/C=C/c2c(C)[nH]c3ccccc23)cc1 -27.1%
O=C(NCN1CCOCC1)c1cnccn1 6.11%
COc1ncc2nc(-c3cc(F)cc(F)c3)c(=O)n(CCC#N)c2n1 -1.83%
COc1cc(-c2cc(=O)c3c(O)c(OC)c(OC)c(OC)c3o2)cc(OC)c1OC 1.5%
Cc1noc(C)c1C(=O)N1CCC2(CCN(Cc3ccccc3)CC2)CC1 15.4%
Cc1cc([C@](C)(N)C(=O)O)ccc1P(=O)(O)O 7.42%
Cc1cnc(-n2ncc(C(=O)NCc3cccnc3)c2C)nc1-c1ccc(F)cc1 12.1%
CN1CCN(c2ncc3nc(-c4ccccc4)c(=O)n(C)c3n2)CC1 3.65%
COc1ccc(-c2cn(Cc3ccc4ccccc4c3)nn2)cc1 11%
Cc1ccsc1C(=O)N(Cc1cc2ccc(F)cc2nc1N1CCC(O)CC1)CC1CCCO1 (stereo not drawn) 18.1%
Cc1nc2cnc(Nc3ccccc3)nc2n(C2CC2)c1=O 9.17%
Cc1c(C(=O)N2CCOc3ccccc3C2)sc2ncnc(NCCCN3CCOCC3)c12 13.8%
CCC(C)C(=O)O[C@H]1C[C@@H](C)C=C2C=C[C@H](C)[C@H](CC[C@@H]3C[C@@H](O)CC(=O)O3)C21 (stereo partly drawn) -10.6%
CC(=O)N1CCC[C@H]1C(=O)NCC1Cc2cc(C)cc(-c3ccc(Cl)cc3)c2O1 (stereo partly drawn) 2.14%
COc1ncc2nc(CCc3ccccc3)c(=O)n(C)c2n1 5.17%
COc1cccc(-c2cc3c(c(OC)c2)OCCN(S(=O)(=O)c2ccccc2OC(F)(F)F)C3)n1 -13%
COC[C@H](c1ccc(C(F)(F)F)cc1)N1CCN(C2(C)CCN(C(=O)c3c(C)ncnc3C)CC2)C[C@H]1C 35.3%
O=S(=O)(c1ccccc1)N1CCC2(CCCN(c3cccc(-c4ccccc4)c3)C2)CC1 4.29%
C[N+]1(CC(=O)c2cccc([N+](=O)[O-])c2)CCOCC1 22.3%
CCOC(=O)c1ccc(-c2c(-c3cc(OC)c(OC)c(OC)c3)noc2C)cc1F -22%
CN1CCCC1CCOC(C)(c1ccccc1)c1ccc(Cl)cc1 (stereo not drawn) 21.5% [at 75.8 µM]
CNCCCCCCCCSc1nc(C(C)C)ccc1C(=O)c1cccs1 2%
OCc1cc2c(cn1)[nH]c1ccccc12 7.08%
CC(=O)N[C@@H](CC(C)C)C(=O)O -7.18%
Cc1nccn1CC1CCC2C(C1=O)c1ccccc1N2C (stereo not drawn) 23.6%
CC[C@]1(O)C[C@@H]2CN(CCc3c([nH]c4ccccc34)[C@](C(=O)OC)(c3cc4c(cc3OC)N(C)[C@H]3[C@](O)(C(=O)OC)[C@@H](C(=O)OC)[C@@]5(CC)C=CCN6CC[C@@]43[C@@H]65)C2)C1 2.39%
CO/N=C(/C(=O)N[C@H]1C(=O)N2C(C(=O)O)=C(COC(C)=O)CSC12)c1csc(N)n1 (stereo partly drawn) -10.5%
Nc1nc(F)nc2c1ncn2[C@@H]1O[C@H](CO)[C@@H](O)[C@@H]1O
Cc1c(OCC(F)(F)F)ccnc1CS(=O)c1nc2ccccc2[nH]1 (stereo not drawn)
COc1ccc(/C=C/c2cc(O)cc(O[C@H]3OC(CO)C(O)C(O)C3O)c2)cc1 (stereo partly drawn) 9.7%
O=C(Nc1ccccc1)N1CC2(CCN(C(=O)c3cnccn3)CC2)C1 22.9%
CC[C@H]1OC(=O)[C@H](C)[C@@H](O[C@H]2C[C@@](C)(OC)[C@@H](O)[C@H](C)O2)[C@H](C)[C@@H](O[C@@H]2O[C@H](C)C[C@H](N(C)C)[C@H]2O)[C@](C)(O)C[C@@H](C)/C(=N\OCOCCOC)[C@H](C)[C@@H](O)[C@]1(C)O 10.4% [at 75.8 µM]
Cc1oc(-c2ccccc2NC(=O)c2cccnc2)nc1CNC(=O)C1CCCCCN1C (stereo not drawn) 16.5%
O=C1NC(=O)[C@@]2(CCOc3ccc(F)cc32)N1 5.41%
C=C(Br)COC(c1ccco1)[C@H](Cc1ccccc1)NC(=O)OC(C)(C)C (stereo partly drawn) -24.5%
COc1ccc(C(=O)NCC2Cc3cccc(-c4ccc(S(C)(=O)=O)cc4)c3O2)c(OC)n1 (stereo not drawn) 20.6%
O=c1[nH]cnc2n[nH]nc12 -19.4%
CNc1ccnc(-c2cccc(NS(C)(=O)=O)c2)n1 3.58%
CCCc1ccc(C(=O)O)cc1 -14.2%
C=C1C[C@H](OC(=O)C(C)(O)CCl)C2C(=C)C(=O)O[C@@H]2C2C1C[C@H](O)[C@]2(O)CCl (stereo partly drawn) 23.3%
COc1ccc(CN2CCCC(n3cc(C(=O)N4CCCCC4)nn3)C2)c(OC)c1 (stereo not drawn) 6.36%
CSc1nc(N)c2ncn([C@@H]3O[C@H](COP(=O)(O)OP(=O)(O)OP(=O)(O)O)[C@@H](O)[C@H]3O)c2n1 -4.47% [at 75.8 µM]
C=CCN1CCc2cc(O)c(O)cc2[C@H](c2ccccc2)C1 4.56%
COc1c2ccoc2nc2c(OC)c(OCC(O)C(C)(C)O)ccc12 (stereo not drawn) 15.8%
COc1cccc(Cn2c(=O)c(CCc3ccccc3)nc3cnc(N4CCNCC4)nc32)c1 -0.227%
COc1ccc(CNc2ncncc2-c2ccc3c(c2)OCO3)c(OC)c1 -28.6%
CN1CCN(c2ncnc3ccc(-c4cccc(NS(C)(=O)=O)c4)cc23)CC1 5.83%
Cc1cc(C)n(-c2ccc(C(=O)N3CCc4c(cnc(C)c4CNC(=O)c4ccccc4F)C3)cc2)n1 14.7%
CCOC(=O)OC(C)OC(=O)[C@@H]1N2C(=O)[C@@H](NC(=O)[C@H](N)c3ccccc3)[C@H]2SC1(C)C (stereo partly drawn) 19.9% [at 75.8 µM]
COc1ccc(C2OCC3(COC(C)=O)C(C)C=C(C)C2C3C)cc1 (stereo not drawn) -3.37%
COc1ccc(-n2c(=O)c(-c3cccc(F)c3)nc3cncnc32)cc1 -0.584%
COc1ccc(C(=O)N2CCC3(CCCN(Cc4ccccc4OC)C3)CC2)cc1 23.4%
Clc1ccccc1-c1nccc(NCc2ccccc2)n1 -4.61%
C=C1C(=O)OC2C[C@@]3(C)CCCC(C)C3=CC12 (stereo partly drawn) -9.33%
CC(C)=CCN1CCC2(CCc3ccccc32)CC1 25.5%
COc1ccccc1-c1ccnc(-n2ncc(C(=O)NCCc3ccccn3)c2C)n1 -14.4%
FC(F)(F)c1ccccc1-c1ccc2ncnc(NCc3cccnc3)c2c1 -9.31%
COc1ccccc1CCn1c(=O)c(-c2cccs2)nc2cncnc21 6.28%
OB(O)O 2.99%
COCc1ccc(CN2CCOc3c(cc(-c4cc(C)c5cccc(OC)c5n4)cc3OC)C2)o1 13.2%
CCN(CC)CCC(=O)N1c2ccccc2Sc2ccc(C(F)(F)F)cc21 1.25%
COC(=O)N1CCC2(CCCN(Cc3cc(C(F)(F)F)cc(C(F)(F)F)c3)C2)CC1 13.6%
O=C(NCC1Cc2cccc(-c3cnccn3)c2O1)C1COc2ccccc2O1 (stereo not drawn) 11%
CNc1cc(-c2ccccc2CN(C)C)ncn1 8.99%
O=C1CCC(c2ccc(-n3ccnc3)cc2)=NN1
CS(=O)(=O)Nc1cc(C(=O)N2CCNC(=O)C2)c2c(c1)ncn2CCc1ccccc1 13%
COc1ccc(-c2nc3cnc(Nc4cccc(OC)c4)nc3n(C3CC3)c2=O)cc1 -13%
COc1ccccc1CCc1nc2ccccc2n1C1CCN(C(=O)c2cn3ccsc3n2)CC1 4.35%
CC(C)c1cnc(NC(=O)Cc2ccccc2)s1 3.36%
COc1ccc(NC(=O)N2CCCC3(CCN(C(=O)c4cccn4C)CC3)C2)cc1 6.37%
CC(C)n1c(/C=C/[C@@H](O)C[C@@H](O)CC(=O)O)c(-c2ccc(F)cc2)c2ccccc21 12.9%
FC(F)(F)c1ccccc1-c1ccc2ncnc(NCCN3CCOCC3)c2c1 20.8%
COC1=C(OC)C(=O)C(CCCCCCCCCCO)=C(C)C1=O 11.8%
Cn1c(=O)c(-c2ccccc2)c(O)c2ccccc21 24.5%
CCNC(=O)N1CCN(CCCC(c2ccc(F)cc2)c2ccc(F)cc2)CC1
Fc1ccc(C(OCCCc2cnc[nH]2)c2ccc(F)cc2)cc1 1.39% [at 75.8 µM]
CCOC(=O)C[C@H]1c2ccc(C(F)(F)F)cc2S(=O)(=O)N1C1CCCC1 -7.38%
O=c1c(-c2ccc(F)c(F)c2)nc2cncnc2n1Cc1ccccc1 -6.98%
O=c1[nH]c(Cl)nc2c1ncn2C1OC(CO)C(O)C1O (stereo not drawn) 12.3%
CCC(CCC(C)C1CCC2C3CC=C4CC(OC(C)=O)CC[C@@]4(C)C3CC[C@@]12C)C(C)C (stereo partly drawn) 11.8%
COc1ccc(-c2nc3cnc(Oc4ccccc4)nc3n(Cc3cccs3)c2=O)cc1 3.31%
CCCCNc1ccc(C(=O)OCCN(CC)CC)cc1 23.2%
COc1cc2c(cc1OC)-c1cc(=Nc3c(C)cc(C)cc3C)n(C)c(=O)n1CC2
COc1ccc(Oc2ncc3nc(-c4cc(F)cc(F)c4)c(=O)n(CCC#N)c3n2)cc1 -0.453%
N#CCCn1c(=O)c(-c2cccs2)nc2cnc(N3CCOCC3)nc21 43%
CC1=C(C(=O)O)N2C(=O)C(NC(=O)C(N)C3=CCC=CC3)C2SC1 (stereo not drawn) 17.8%
CCOC(=O)[C@H](CCc1ccccc1)N[C@H]1CCc2ccccc2N(CC(=O)O)C1=O 13.7%
COC(=O)/C=C\c1cc(O)ccc1O 6.46%
CC1=CC(=O)C2C(C)(C)CCC[C@@]2(C)[C@@]1(O)CCc1ccoc1 (stereo partly drawn) -0.111%
CCCCCCCCCCCC[n+]1ccc2ccccc2c1 11.4%
CC(C)(C)NC[C@H](O)COc1nsnc1N1CCOCC1
C[C@]12CCC(=O)C=C1CC[C@@H]1[C@@H]2[C@@H](O)C[C@@]2(C)[C@H]1CC[C@]2(O)C(=O)COC(=O)CCC(=O)O 26.3%
